Values joined by “and” are separate entries in the source; they are usually repeats but may differ in a detail not shown here. Equal values may be shown once. Inconclusive means that the source gave no clear call. Such entries were picked first, then a sample of the others. For some of these results: No potency is given beside an inconclusive call; the fits are too rough. For some of these results: “Side channel” marks fits to a control or component signal instead of the main read-out. Active and inactive are the calls of the source. Unless noted, calls follow the shape of the full dose curve.
Tests used:
[1] = target: Estrogen receptor (Homo sapiens) (UniProt P03372); assay: qHTS assay for small molecule antagonists of estrogen receptor alpha signaling (AID 588513; active = well fitted curve in the direction sought with a large enough effect in the signal ratio, with a control signal flat, not every such curve was filed as active; inconclusive = small, poorly fitted or top-dose-only effect, or effect the other way, or a change in a side signal; inactive = no such curve, though single readings can be large or run the other way; the % refers to the signal ratio; also: potency is read from the fitted curve at half-maximal effect; as to activity, negative = inhibition: % is scaled to controls: 0 for no effect and ±100 for the full control effect); conditions: ER-alpha-UAS-bla HEK293, beta-lactamase ratio, antagonist mode; activity, negative = inhibition: at 76.9 µM (top of the series) unless noted
Summary of the method: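 ER-alpha-UAS-bla GripTite HEK 293 cells in 2% charcoal/dextran-treated FBS medium; compounds titrated (1:2, duplicate), then stimulated with 0.5 nM 17-beta-estradiol for 18 h at 37C. CCF4 beta-lactamase fluorescence; Hill-fit IC50 and efficacy.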

[2] = target: Bile acid receptor (Homo sapiens) (UniProt Q96RI1); assay: qHTS assay for small molecule agonists of farnesoid X receptor signaling (AID 588527); conditions: HEK293T FXR-UAS-bla, beta-lactamase ratio, 16 h; activation: hits give high values;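 also: 0% = vehicle basal and 100% = reference agonist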
Summary of the method: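 FXR-UAS-bla HEK293T, 10% dialyzed FBS; cpds up to 92 uM titration, 16 h 37 C; CCF4 dye 2 h RT; fluorescence. Normalized to chenodeoxycholic acid 100 uM (100%) and DMSO (0%); Hill fit gives EC50, efficacy.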

[3] = target: Retinoic acid receptor RXR-alpha (Homo sapiens) (UniProt P19793); assay: qHTS assay for small molecule agonists of retinoid X receptor alpha signaling (AID 588544); conditions: HEK293T RXRa-UAS-bla, beta-lactamase reporter, 18 h; activation: at 76.7 µM (top of the series) unless noted; also: potency is read from the fitted curve at half-maximal effect;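 as to activation: 0% = DMSO basal wells and 100% = reference agonist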
[4] = target: Retinoic acid receptor RXR-alpha (Homo sapiens) (UniProt P19793); assay: qHTS assay for small molecule antagonists of retinoid X receptor alpha signaling (AID 588546; active = well fitted inhibition curve with a large enough effect in the signal ratio, with a control signal flat, not every such curve was filed as active; inconclusive = small, poorly fitted or top-dose-only effect, or effect the other way, or a change in a side signal; inactive = no such curve, though single readings can be large or run the other way; the % refers to the signal ratio;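 also: cells stimulated with 9-cis-retinoic acid as agonist; % is scaled to controls: 0 for no effect and ±100 for the full control effect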); conditions: HEK293T RXRa-UAS-bla, beta-lactamase ratio, antagonist mode
Summary of the method: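 Beta-lactamase reporter inhibition, read as CCF4 fluorescence ratio (ex 405, em 460/530 nm) after 2 h at RT. HEK293T UAS-bla cells, 2500/well, were stimulated with 9-cis-RA at 500 or 100 nM final alongside test compound for 18 h at 37 C.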

[5] = target: Thyroid hormone receptor beta (Homo sapiens) (UniProt P10828); assay: qHTS assay for small molecule antagonists of thyroid hormone receptor beta signaling (AID 588547; active = well fitted inhibition curve with a large enough effect in the signal ratio, with a control signal flat, not every such curve was filed as active; inconclusive = small, poorly fitted or top-dose-only effect, or effect the other way, or a change in a side signal; the % refers to the signal ratio; also: potency is read from the fitted curve at half-maximal effect;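 as to activity change % (negative = inhibition): cells stimulated with 0.4 nM T3 agonist during compound exposure; % is scaled to controls: 0 for no effect and ±100 for the full control effect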); conditions: TR-UAS-bla HEK293, beta-lactamase ratio, antagonist mode, 18 h
Summary of the method: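 TR-UAS-bla GripTite HEK293 cells in 2% charcoal/dextran FBS medium were preincubated 4 h at 37 C, given compound (0.59 nM to 92 uM) plus 0.4 nM T3 (final) for 18 h, then CCF4 for 2 h at RT; Hill fit gave IC50.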

[6] = qHTS assay for small molecule agonists of the antioxidant response element (ARE) signaling pathway (AID 651741; active = well fitted activation curve with a large enough effect in the signal ratio; inconclusive = small, poorly fitted or top-dose-only effect, or effect the other way, or a change in a side signal; the % refers to the signal ratio; also: potency is read from the fitted curve at half-maximal effect; as to activation: % of control where 0% means no effect); conditions: HepG2 ARE-bla reporter, beta-lactamase FRET ratio, 16 h; activation: at 96 µM (top of the series) unless noted
Summary of the method: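 Reporter: beta-lactamase under ARE, stably in HepG2. Exposure: 16 h, 37 C, compounds delivered in DMSO by pin tool after 5 h cell preincubation. Readout: FRET substrate fluorescence after 2 h at RT.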

[7] = target: Peroxisome proliferator-activated receptor delta (Homo sapiens) (UniProt Q03181); assay: qHTS assay for small molecule agonists of peroxisome proliferator-activated receptor delta signaling (AID 588534); conditions: HEK293T PPARdelta-UAS-bla, beta-lactamase ratio, 18 h; activation: at 76.7 µM (top of the series);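 also: 0% = DMSO basal wells and 100% = positive control agonist at 10 µM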
Summary of the method: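 Agonist-mode qHTS; reporter cells, 5 hrs 37 C pre-incubation; compound titration, 18 hrs 37 C; CCF4 dye, 2 hrs RT; fluorescence read. EC50/efficacy via Hill fit.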

[8] = target: Peroxisome proliferator-activated receptor delta (Homo sapiens) (UniProt Q03181); assay: qHTS assay for small molecule antagonists of peroxisome proliferator-activated receptor delta signaling (AID 588535; active = well fitted inhibition curve with a large enough effect in the signal ratio, with a control signal flat, not every such curve was filed as active; inconclusive = small, poorly fitted or top-dose-only effect, or effect the other way, or a change in a side signal; inactive = no such curve, though single readings can be large or run the other way; the % refers to the signal ratio; also: potency is read from the fitted curve at half-maximal effect); conditions: HEK293T PPARd-UAS-bla, beta-lactamase FRET ratio, 18 h; activity change, negative = inhibition: at 76.7 µM (top of the series) unless noted
Summary of the method: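 Inhibition of PPAR-delta response element-driven beta-lactamase expression is measured in HEK293T cells exposed to a compound titration series for 18 hrs at 37 C. Half-maximal inhibition comes from Hill equation fitting.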

[9] = target: Cytochrome P450 3A4 (Homo sapiens) (UniProt P08684); assay: qHTS Assay for Inhibitors and Substrates of Cytochrome P450 3A4 (AID 884; active = well fitted curve in the direction sought with a large enough effect; inconclusive = small, poorly fitted or top-dose-only effect, or another doubt; inactive = no such curve, though single readings can be large; an effect the other way counts as inactive or inconclusive; also: % is scaled to controls: 0 for no effect and ±100 for the full control effect; nearly all actives have a fitted effect of over 50% in size)
Summary of the method: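 Luminescent readout of luciferin produced by CYP3A4 (20 nM) dealkylation of Luciferin-PPXE, 25 uM (its KM). NADPH-driven reaction ran 60 min at RT after 10 min compound preincubation; data scaled to 57 uM ketoconazole as 100% inhibition.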

[10] = MultiTox-Fluor Cytotoxicity Assay - LYMP1-001 - Live Cells (AID 947; active = well fitted curve in the direction sought with a large enough effect; inconclusive = small, poorly fitted or top-dose-only effect, or another doubt; inactive = no such curve, though single readings can be large; an effect the other way counts as inactive or inconclusive;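 also: 0% = DMSO only and full inhibition = tetraoctylammonium bromide control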)
[11] = MultiTox-Fluor Cytotoxicity Assay - LYMP1-002 - Dead Cells (AID 960; active = well fitted curve in the direction sought with a large enough effect; inconclusive = small, poorly fitted or top-dose-only effect, or another doubt; inactive = no such curve, though single readings can be large; an effect the other way counts as inactive or inconclusive;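 also: 0% = DMSO and 100% = tetraoctylammonium bromide; nearly all actives have a fitted effect of over 60% in size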); conditions: LYMP1-002 lymphoblastoid cells, dead-cell protease fluorescence; cytotoxicity (dead cells): at 46.1 µM (top of the series)
Summary of the method: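 Cells were plated, rested 5 hr, then treated with compound dilution series for 16 hr at 37 C. After adding substrate reagent and 60 min at room temperature, dead-cell protease fluorescence gave concentration-response curves fitted by the Hill equation.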

[12] = Cell Viability - LYMP1-003 - Assay at 40 hr (AID 964; active = well fitted curve in the direction sought with a large enough effect; inconclusive = small, poorly fitted or top-dose-only effect, or another doubt; inactive = no such curve, though single readings can be large; an effect the other way counts as inactive or inconclusive; also: % is scaled to controls: 0 for no effect and ±100 for the full control effect; nearly all actives have a fitted effect of over 60% in size)
Summary of the method: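 Luminescent ATP signal (CellTiter-Glo) served as the viability read-out after 40 hr compound treatment of human lymphoblastoid LYMP1-003 cells at 37 C. Decreases in ATP were fitted with the Hill equation to give AC50.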

[13] = target: Glucocorticoid receptor (Homo sapiens) (UniProt P04150); assay: qHTS assay for small molecule antagonists of glucocorticoid receptor signaling (AID 588533; active = well fitted inhibition curve with a large enough effect in the signal ratio, with a control signal flat, not every such curve was filed as active; inconclusive = small, poorly fitted or top-dose-only effect, or effect the other way, or a change in a side signal; the % refers to the signal ratio;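 also: cells stimulated with 2 nM dexamethasone as agonist; % is scaled to controls: 0 for no effect and ±100 for the full control effect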); conditions: HeLa MMTV-bla, GRE beta-lactamase ratio, antagonist mode, 18 h; activity change, negative = inhibition: at 76.8 µM (top of the series) unless noted
[14] = target: Peroxisome proliferator-activated receptor gamma (Homo sapiens) (UniProt P37231); assay: qHTS assay for small molecule agonists of peroxisome proliferator-activated receptor gamma signaling (AID 588536; active = well fitted curve in the direction sought with a large enough effect in the signal ratio, with a control signal flat, not every such curve was filed as active; inconclusive = small, poorly fitted or top-dose-only effect, or effect the other way, or a change in a side signal; inactive = no such curve, though single readings can be large or run the other way; the % refers to the signal ratio;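 also: 0% = DMSO basal wells and 100% = rosiglitazone at 2 µM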); conditions: HEK293 PPARg-UAS-bla, beta-lactamase ratio, 16 h; activation: at 76.7 µM (top of the series), percent of rosiglitazone response, DMSO as zero unless noted
Summary of the method: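 Compound treatment: 16 h, 37 C, HEK293 GeneBLAzer cells. Detection: CCF4, 2 h RT. Values: Hill-fit EC50, efficacy as % of 2 uM rosiglitazone.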

[15] = qHTS assay for small molecule activators of the nuclear factor-kappa B (NF-kB) signaling pathway (AID 651749; active = well fitted activation curve with a large enough effect in the signal ratio; inconclusive = small, poorly fitted or top-dose-only effect, or a change in a side signal; the % refers to the signal ratio; also: % of control where 0% means no effect); conditions: NF-kB-bla ME-180 cells, beta-lactamase FRET ratio, 16 h; activation: hits give high values
Summary of the method: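 Human ME-180 cervical cells with an NF-kB-bla construct; compounds added via 23 nL pin transfer, DMSO as vehicle; incubation 16 hr. Reporter activity measured by FRET disruption.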

[16] = qHTS assay to identify small molecules that stimulate interleukin-8 (IL-8) secretion (AID 651758; active = well fitted activation curve with a large enough effect in the signal ratio; inconclusive = small, poorly fitted or top-dose-only effect, or effect the other way, or a change in a side signal; the % refers to the signal ratio; also: potency is read from the fitted curve at half-maximal effect); conditions: HTRF ratio (665/615); activation: at 92.2 µM (top of the series)
Summary of the method: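 Quantitative HTS in THP-1 monocytic cells at 2000 cells per well, with 16 hrs compound incubation at 37 C. IL-8 in the medium was then quantified by HTRF immunoassay, read after 1-3 hrs at room temperature.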

[17] = target: Peroxisome proliferator-activated receptor gamma (Homo sapiens) (UniProt P37231); assay: qHTS assay for small molecule antagonists of peroxisome proliferator-activated receptor gamma signaling (AID 588537; active = well fitted inhibition curve with a large enough effect in the signal ratio, with a control signal flat, not every such curve was filed as active; inconclusive = small, poorly fitted or top-dose-only effect, or effect the other way, or a change in a side signal; the % refers to the signal ratio;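 also: reporter cells co-stimulated with 50 nM rosiglitazone agonist during compound treatment; % of control where 0% means no effect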); conditions: HEK293 PPARg-UAS-bla, beta-lactamase ratio, antagonist mode; activity, negative = inhibition: at 76.8 µM (top of the series)
Summary of the method: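 Compounds are tested as concentration series for inhibition of rosiglitazone-driven (50 nM) reporter expression in GeneBLAzer PPAR-gamma-UAS-bla HEK293 cells. After 16 h at 37 C, CCF4 substrate is added for 2 h at room temperature and blue/green fluorescence is measured.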

[18] = qHTS assay for small molecule agonists of the antioxidant response element (ARE) signaling pathway measured by Nrf2-dependant transcriptional activity (AID 720636; active = well fitted curve in the direction sought with a large enough effect in the repeat runs; inconclusive = weak or mixed curves; inactive = no such curve, though single readings can be large; an effect the other way counts as inactive or inconclusive; also: potency is read from the fitted curve at half-maximal effect)
Summary of the method: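 Attachment 6 hr at 37 C, then compound versus DMSO vehicle for 16 hr in ARE-luc HepG2 cells (1% dialyzed FBS); luminescence recorded 30 min after ONE-Glo addition at room temperature.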

[19] = target: Thyroid hormone receptor beta (Homo sapiens) (UniProt P10828); assay: qHTS assay for small molecule agonists of thyroid hormone receptor beta signaling (AID 588545); conditions: TR-UAS-bla GripTite HEK 293, beta-lactamase ratio, agonist mode, 18 h; activation: at 76.7 µM, percent of T3 response, DMSO as zero; also: potency is read from the fitted curve at half-maximal effect
Summary of the method: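 Beta-lactamase reporter activity under TR response element control is measured in HEK 293 cells after 18 hrs compound exposure. Signal is ratiometric CCF4 fluorescence, 460/530 nm.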
Tags tell the direction and shape of the fitted curve or compound fluorescence and quenching.

Chain of UniProt Q03181 (Q03181 whole entry, looked up): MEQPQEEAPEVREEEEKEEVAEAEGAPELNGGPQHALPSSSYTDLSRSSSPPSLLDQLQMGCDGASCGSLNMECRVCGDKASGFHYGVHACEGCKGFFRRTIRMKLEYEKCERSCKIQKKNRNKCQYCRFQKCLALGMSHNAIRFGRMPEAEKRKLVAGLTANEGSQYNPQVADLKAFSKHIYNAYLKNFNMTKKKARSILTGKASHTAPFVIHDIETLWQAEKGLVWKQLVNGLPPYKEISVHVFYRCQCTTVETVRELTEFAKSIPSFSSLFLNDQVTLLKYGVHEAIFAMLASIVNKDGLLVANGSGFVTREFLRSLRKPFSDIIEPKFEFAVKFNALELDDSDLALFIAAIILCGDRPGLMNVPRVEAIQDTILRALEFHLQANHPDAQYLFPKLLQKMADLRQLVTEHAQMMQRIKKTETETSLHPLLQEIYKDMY
Chain of UniProt P10828 (P10828 whole entry, looked up): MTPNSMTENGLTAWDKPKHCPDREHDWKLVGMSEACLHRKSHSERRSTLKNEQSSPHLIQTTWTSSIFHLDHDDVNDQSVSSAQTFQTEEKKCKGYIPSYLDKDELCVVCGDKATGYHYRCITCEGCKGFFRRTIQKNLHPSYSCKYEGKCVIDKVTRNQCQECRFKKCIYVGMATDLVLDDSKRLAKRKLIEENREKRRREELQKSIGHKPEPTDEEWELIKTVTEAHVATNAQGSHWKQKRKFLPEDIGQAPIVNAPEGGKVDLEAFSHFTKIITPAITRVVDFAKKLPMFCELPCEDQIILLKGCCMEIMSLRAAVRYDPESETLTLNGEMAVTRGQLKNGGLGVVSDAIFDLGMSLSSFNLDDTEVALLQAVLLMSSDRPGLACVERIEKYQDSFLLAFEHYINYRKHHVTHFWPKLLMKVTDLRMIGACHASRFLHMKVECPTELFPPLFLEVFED
Chain of UniProt P03372 (P03372 whole entry, looked up): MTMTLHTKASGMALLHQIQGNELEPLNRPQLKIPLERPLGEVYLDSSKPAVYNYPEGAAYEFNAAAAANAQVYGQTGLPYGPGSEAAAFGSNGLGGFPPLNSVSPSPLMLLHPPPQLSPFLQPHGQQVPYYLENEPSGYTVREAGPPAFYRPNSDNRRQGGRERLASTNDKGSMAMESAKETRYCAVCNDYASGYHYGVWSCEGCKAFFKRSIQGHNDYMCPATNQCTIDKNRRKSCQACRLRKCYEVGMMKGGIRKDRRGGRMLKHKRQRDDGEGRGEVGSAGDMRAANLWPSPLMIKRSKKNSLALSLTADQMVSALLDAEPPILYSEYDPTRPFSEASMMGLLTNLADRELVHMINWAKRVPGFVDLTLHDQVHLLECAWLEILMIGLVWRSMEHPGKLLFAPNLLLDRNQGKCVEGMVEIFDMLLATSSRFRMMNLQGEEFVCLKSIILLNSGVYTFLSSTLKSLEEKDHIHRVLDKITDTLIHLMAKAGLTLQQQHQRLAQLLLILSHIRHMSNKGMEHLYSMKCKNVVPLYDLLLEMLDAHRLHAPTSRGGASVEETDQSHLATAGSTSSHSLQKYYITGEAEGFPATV
Chain of UniProt P19793 (P19793 whole entry, looked up): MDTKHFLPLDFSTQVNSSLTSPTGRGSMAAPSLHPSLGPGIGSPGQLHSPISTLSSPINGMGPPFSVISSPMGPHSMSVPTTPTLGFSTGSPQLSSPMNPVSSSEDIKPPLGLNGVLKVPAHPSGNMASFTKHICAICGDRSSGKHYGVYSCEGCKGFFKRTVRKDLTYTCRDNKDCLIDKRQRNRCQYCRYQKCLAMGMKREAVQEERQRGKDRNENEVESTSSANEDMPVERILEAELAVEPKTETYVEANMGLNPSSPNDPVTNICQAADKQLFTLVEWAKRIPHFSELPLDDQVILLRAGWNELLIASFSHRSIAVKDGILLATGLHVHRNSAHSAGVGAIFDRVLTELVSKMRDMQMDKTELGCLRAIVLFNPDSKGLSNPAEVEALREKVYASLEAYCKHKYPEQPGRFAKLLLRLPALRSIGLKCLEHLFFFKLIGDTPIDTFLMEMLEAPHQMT
Chain of UniProt Q96RI1 (Q96RI1 whole entry, looked up): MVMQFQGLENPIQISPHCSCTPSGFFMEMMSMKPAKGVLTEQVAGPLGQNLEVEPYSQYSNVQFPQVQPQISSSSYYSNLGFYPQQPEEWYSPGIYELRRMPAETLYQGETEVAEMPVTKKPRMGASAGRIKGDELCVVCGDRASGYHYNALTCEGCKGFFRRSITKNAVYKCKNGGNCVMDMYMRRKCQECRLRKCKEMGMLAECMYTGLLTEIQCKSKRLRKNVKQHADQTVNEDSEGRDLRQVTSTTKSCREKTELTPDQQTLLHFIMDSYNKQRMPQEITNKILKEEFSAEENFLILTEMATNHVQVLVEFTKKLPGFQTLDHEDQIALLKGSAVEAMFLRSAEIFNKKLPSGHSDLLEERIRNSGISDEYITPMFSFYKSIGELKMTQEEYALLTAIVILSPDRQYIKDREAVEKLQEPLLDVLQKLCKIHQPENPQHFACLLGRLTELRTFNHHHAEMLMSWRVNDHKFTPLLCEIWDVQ
Chain of UniProt P08684 (P08684 whole entry, looked up): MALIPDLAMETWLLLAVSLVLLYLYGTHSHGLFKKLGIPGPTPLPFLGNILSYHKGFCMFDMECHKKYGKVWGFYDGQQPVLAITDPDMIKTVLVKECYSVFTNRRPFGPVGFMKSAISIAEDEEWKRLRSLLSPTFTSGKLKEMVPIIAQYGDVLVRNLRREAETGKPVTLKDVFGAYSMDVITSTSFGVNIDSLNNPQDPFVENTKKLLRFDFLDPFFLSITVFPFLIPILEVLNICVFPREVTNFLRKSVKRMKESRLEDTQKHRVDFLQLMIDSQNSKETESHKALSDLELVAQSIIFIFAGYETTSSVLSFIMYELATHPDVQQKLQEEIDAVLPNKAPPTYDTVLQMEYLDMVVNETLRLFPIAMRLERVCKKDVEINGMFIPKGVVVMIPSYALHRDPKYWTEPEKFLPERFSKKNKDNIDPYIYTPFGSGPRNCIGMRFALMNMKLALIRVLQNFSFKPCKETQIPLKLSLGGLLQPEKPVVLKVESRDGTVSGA

COc1ccc(-c2ccccc2)cc1NNC(=O)OC(C)C
Potency [1]: inconclusive [inhibitor, single point] | activation [2]: inactive: 1.06% | Potency [3]: inconclusive [inhibitor, partial curve, poor fit] | max response [4]: inconclusive: -33% | Potency [5]: inconclusive [inhibitor, single point] | Potency [6]: active: 54.5 µM

CCCCC(CC)CO[N+](=O)[O-] (stereo not given)
Potency [1]: inactive | Potency [7]: inactive | Potency [8]: inactive | max response [4]: inactive: 3.31% | activation [6]: inconclusive: -3.58%

CCC[CH2][Sn]([Cl])([Cl])[Cl]
Potency [9]: inactive | Potency [10]: inactive | Potency [11]: inactive | Potency [12]: inactive | Potency [1]: inactive | activity change, negative = inhibition [13]: inconclusive: -15.9% | activation [14]: inconclusive: 11% | activity change % (negative = inhibition) [5]: inconclusive: -10.2% | Potency [6]: active: 13.3 µM | activation [6]: inconclusive: 21.6% | activation [15]: inactive: -0.955% and inactive: -1.49% | Potency [16]: inconclusive [activator, single point]

CCSC(=O)N(CC)C1CCCCC1
activity, negative = inhibition [1]: inconclusive: -1.72% | activation [2]: inactive: -3.64% | activity change, negative = inhibition [8]: inconclusive: -22.5% | Potency [17]: inactive | Potency [3]: inactive | Potency [5]: inconclusive [activator, single point]

CC1=C(C(=O)Nc2ccccc2)SCCO1
activity, negative = inhibition [1]: inconclusive: -17.3% | Potency [8]: inconclusive | Potency [17]: inactive | Potency [6]: inactive | Potency [18]: inconclusive [activator, full curve, poor fit]

Cc1[nH]c(=O)n(C(C)(C)C)c(=O)c1Cl
activity, negative = inhibition [1]: inconclusive: -46% | Potency [14]: inactive | Potency [3]: inactive | Potency [19]: inconclusive [side channel, falling, full curve, poor fit] | max response [4]: inconclusive: -21.9% | Potency [6]: inconclusive [activator, full curve, poor fit]

From PubChem BioAssay (NCATS)
